This is an account of results in the supplement of paper PMC12423691.

The chains are these.
B1: FOXO3, O43524 (protein)
chain: MAEAPASPAPLSPLEVELDPEFEPQSRPRSCTWPLQRPELQASPAKPSGETAADSMIPEEEDDEDDEDGGGRAGSAMAIGGGGGSGTLGSGLLLEDSARVLAPGGQDPGSGPATAAGGLSGGTQALLQPQQPLPPPQPGAAGGSGQPRKCSSRRNAWGNLSYADLITRAIESSPDKRLTLSQIYEWMVRCVPYFKDKGDSNSSAGWKNSIRHNLSLHSRFMRVQNEGTGKSSWWIINPDGGKSGKAPRRRAVSMDNSNKYTKSRGRAAKKKAALQTAPESADDSPSQLSKWPGSPTSRSSDELDAWTDFRSRTNSNASTVSGRLSPIMASTELDEVQDDDAPLSPMLYSSSASLSPSVSKPCTVELPRLTDMAGTMNLNDGLTENLMDDLLDNITLPPSQPSPTGGLMQRSSSFPYTTKGSGLGSPTSSFNSTVFGPSSLNSLRQSPMQTIQENKPATFSSMSHYGNQTLQDLLTSDSLSHSDVMMTQSDPLMSQASTAVSAQNSRRNVMLRNDPMMSFAAQPNQGSLVNQNLLHHQHQTQGALGGSRALSNSVSNMGLSESSSLGSAKHQQQSPVSQSMQTLSDSLSGSSLYSTSANLPVMGHEKFPSDLDLDMFNGSLECDMESIIRSELMDADGLDFNFDSLISTQNVVGLNVGNFTGAKQASSQSWVPG
B2: LRP6, O75581 (protein)
chain: MGAVLRSLLACSFCVLLRAAPLLLYANRRDLRLVDATNGKENATIVVGGLEDAAAVDFVFSHGLIYWSDVSEEAIKRTEFNKTESVQNVVVSGLLSPDGLACDWLGEKLYWTDSETNRIEVSNLDGSLRKVLFWQELDQPRAIALDPSSGFMYWTDWGEVPKIERAGMDGSSRFIIINSEIYWPNGLTLDYEEQKLYWADAKLNFIHKSNLDGTNRQAVVKGSLPHPFALTLFEDILYWTDWSTHSILACNKYTGEGLREIHSDIFSPMDIHAFSQQRQPNATNPCGIDNGGCSHLCLMSPVKPFYQCACPTGVKLLENGKTCKDGATELLLLARRTDLRRISLDTPDFTDIVLQLEDIRHAIAIDYDPVEGYIYWTDDEVRAIRRSFIDGSGSQFVVTAQIAHPDGIAVDWVARNLYWTDTGTDRIEVTRLNGTMRKILISEDLEEPRAIVLDPMVGYMYWTDWGEIPKIERAALDGSDRVVLVNTSLGWPNGLALDYDEGKIYWGDAKTDKIEVMNTDGTGRRVLVEDKIPHIFGFTLLGDYVYWTDWQRRSIERVHKRSAEREVIIDQLPDLMGLKATNVHRVIGSNPCAEENGGCSHLCLYRPQGLRCACPIGFELISDMKTCIVPEAFLLFSRRADIRRISLETNNNNVAIPLTGVKEASALDFDVTDNRIYWTDISLKTISRAFMNGSALEHVVEFGLDYPEGMAVDWLGKNLYWADTGTNRIEVSKLDGQHRQVLVWKDLDSPRALALDPAEGFMYWTEWGGKPKIDRAAMDGSERTTLVPNVGRANGLTIDYAKRRLYWTDLDTNLIESSNMLGLNREVIADDLPHPFGLTQYQDYIYWTDWSRRSIERANKTSGQNRTIIQGHLDYVMDILVFHSSRQSGWNECASSNGHCSHLCLAVPVGGFVCGCPAHYSLNADNRTCSAPTTFLLFSQKSAINRMVIDEQQSPDIILPIHSLRNVRAIDYDPLDKQLYWIDSRQNMIRKAQEDGSQGFTVVVSSVPSQNLEIQPYDLSIDIYSRYIYWTCEATNVINVTRLDGRSVGVVLKGEQDRPRAVVVNPEKGYMYFTNLQERSPKIERAALDGTEREVLFFSGLSKPIALALDSRLGKLFWADSDLRRIESSDLSGANRIVLEDSNILQPVGLTVFENWLYWIDKQQQMIEKIDMTGREGRTKVQARIAQLSDIHAVKELNLQEYRQHPCAQDNGGCSHICLVKGDGTTRCSCPMHLVLLQDELSCGEPPTCSPQQFTCFTGEIDCIPVAWRCDGFTECEDHSDELNCPVCSESQFQCASGQCIDGALRCNGDANCQDKSDEKNCEVLCLIDQFRCANGQCIGKHKKCDHNVDCSDKSDELDCYPTEEPAPQATNTVGSVIGVIVTIFVSGTVYFICQRMLCPRMKGDGETMTNDYVVHGPASVPLGYVPHPSSLSGSLPGMSRGKSMISSLSIMGGSSGPPYDRAHVTGASSSSSSSTKGTYFPAILNPPPSPATERSHYTMEFGYSSNSPSTHRSYSYRPYSYRHFAPPTTPCSTDVCDSDYAPSRRMTSVATAKGYTSDLNYDSEPVPPPPTPRSQYLSAEENYESCPPSPYTERSYSHHLYPPPPSPCTDSS
B3: SCML1, Q9UN30 (protein)
chain: MMSNSSSEIDVIKTRIPTYDEDDNTILYAYETKPEFVNKEPNIVSDASCNTEEQLKTVDDVLIHCQVIYDALQNLDKKIDVIRRKVSKIQRFHARSLWTNHKRYGYKKHSYRLVKKLKLQKMKKNEVYETFSYPESYSPTLPVSRRENNSPSNLPRPSFCMEEYQRAELEEDPILSRTPSPVHPSDFSEHNCQPYYASDGATYGSSSGLCLGNPRADSIHNTYSTDHASAAPPSVTRSPVENDGYIEEGSITKHPSTWSVEAVVLFLKQTDPLALCPLVDLFRSHEIDGKALLLLTSDVLLKHLGVKLGTAVKLCYYIDRLKQGKCFEN
B4: IRF8, Q02556 (protein)
chain: MCDRNGGRRLRQWLIEQIDSSMYPGLIWENEEKSMFRIPWKHAGKQDYNQEVDASIFKAWAVFKGKFKEGDKAEPATWKTRLRCALNKSPDFEEVTDRSQLDISEPYKVYRIVPEEEQKCKLGVATAGCVNEVTEMECGRSEIDELIKEPSVDDYMGMIKRSPSPPEACRSQLLPDWWAQQPSTGVPLVTGYTTYDAHHSAFSQMVISFYYGGKLVGQATTTCPEGCRLSLSQPGLPGTKLYGPEGLELVRFPPADAIPSERQRQVTRKLFGHLERGVLLHSSRQGVFVKRLCQGRVFCSGNAVVCKGRPNKLERDEVVQVFDTSQFFRELQQFYNSQGRLPDGRVVLCFGEEFPDMAPLRSKLILVQIEQLYVRQLAEEAGKSCGAGSVMQAPEEPPPDQVFRMFPDICASHQRSFFRENQQITV
B5: SNAI3, Q3KNW1 (protein)
chain: MPRSFLVKTHSSHRVPNYRRLETQREINGACSACGGLVVPLLPRDKEAPSVPGDLPQPWDRSSAVACISLPLLPRIEEALGASGLDALEVSEVDPRASRAAIVPLKDSLNHLNLPPLLVLPTRWSPTLGPDRHGAPEKLLGAERMPRAPGGFECFHCHKPYHTLAGLARHRQLHCHLQVGRVFTCKYCDKEYTSLGALKMHIRTHTLPCTCKICGKAFSRPWLLQGHVRTHTGEKPYACSHCSRAFADRSNLRAHLQTHSDAKKYRCRRCTKTFSRMSLLARHEESGCCPGP
B6: TFCP2L1, Q9NZI6 (protein)
chain: MLFWHTQPEHYNQHNSGSYLRDVLALPIFKQEEPQLSPENEARLPPLQYVLCAATSPAVKLHEETLTYLNQGQSYEIRLLENRKLGDFQDLNTKYVKSIIRVVFHDRRLQYTEHQQLEGWRWSRPGDRILDIDIPLSVGILDPRASPTQLNAVEFLWDPAKRASAFIQVHCISTEFTPRKHGGEKGVPFRVQIDTFKQNENGEYTEHLHSASCQIKVFKPKGADRKQKTDREKMEKRTAQEKEKYQPSYETTILTECSPWPDVAYQVNSAPSPSYNGSPNSFGLGEGNASPTHPVEALPVGSDHLLPSASIQDAQQWLHRNRFSQFCRLFASFSGADLLKMSRDDLVQICGPADGIRLFNAIKGRNVRPKMTIYVCQELEQNRVPLQQKRDGSGDSNLSVYHAIFLEELTTLELIEKIANLYSISPQHIHRVYRQGPTGIHVVVSNEMVQNFQDESCFVLSTIKAESNDGYHIILKCGL
B7: HMGA2, P52926 (protein)
chain: MSARGEGAGQPSTSAQGQPAAPAPQKRGRGRPRKQQQEPTGEPSPKRPRGRPKGSKNKSPSKAAQKKAEATGEKRPRGRPRKWPQQVVQKKPAQEETEETSSQESAEED
B8: PIAS2, O75928 (protein)
chain: MADFEELRNMVSSFRVSELQVLLGFAGRNKSGRKHDLLMRALHLLKSGCSPAVQIKIRELYRRRYPRTLEGLSDLSTIKSSVFSLDGGSSPVEPDLAVAGIHSLPSTSVTPHSPSSPVGSVLLQDTKPTFEMQQPSPPIPPVHPDVQLKNLPFYDVLDVLIKPTSLVQSSIQRFQEKFFIFALTPQQVREICISRDFLPGGRRDYTVQVQLRLCLAETSCPQEDNYPNSLCIKVNGKLFPLPGYAPPPKNGIEQKRPGRPLNITSLVRLSSAVPNQISISWASEIGKNYSMSVYLVRQLTSAMLLQRLKMKGIRNPDHSRALIKEKLTADPDSEIATTSLRVSLMCPLGKMRLTIPCRAVTCTHLQCFDAALYLQMNEKKPTWICPVCDKKAAYESLILDGLFMEILNDCSDVDEIKFQEDGSWCPMRPKKEAMKVSSQPCTKIESSSVLSKPCSVTVASEASKKKVDVIDLTIESSSDEEEDPPAKRKCIFMSETQSSPTKGVLMYQPSSVRVPSVTSVDPAAIPPSLTDYSVPFHHTPISSMSSDLPGLDFLSLIPVDPQYCPPMFLDSLTSPLTASSTSVTTTSSHESSTHVSSSSSRSETGVITSSGSNIPDIISLD
B9: DDX58, O95786 (protein)
chain: MTTEQRRSLQAFQDYIRKTLDPTYILSYMAPWFREEEVQYIQAEKNNKGPMEAATLFLKFLLELQEEGWFRGFLDALDHAGYSGLYEAIESWDFKKIEKLEEYRLLLKRLQPEFKTRIIPTDIISDLSECLINQECEEILQICSTKGMMAGAEKLVECLLRSDKENWPKTLKLALEKERNKFSELWIVEKGIKDVETEDLEDKMETSDIQIFYQEDPECQNLSENSCPPSEVSDTNLYSPFKPRNYQLELALPAMKGKNTIICAPTGCGKTFVSLLICEHHLKKFPQGQKGKVVFFANQIPVYEQQKSVFSKYFERHGYRVTGISGATAENVPVEQIVENNDIIILTPQILVNNLKKGTIPSLSIFTLMIFDECHNTSKQHPYNMIMFNYLDQKLGGSSGPLPQVIGLTASVGVGDAKNTDEALDYICKLCASLDASVIATVKHNLEELEQVVYKPQKFFRKVESRISDKFKYIIAQLMRDTESLAKRICKDLENLSQIQNREFGTQKYEQWIVTVQKACMVFQMPDKDEESRICKALFLYTSHLRKYNDALIISEHARMKDALDYLKDFFSNVRAAGFDEIEQDLTQRFEEKLQELESVSRDPSNENPKLEDLCFILQEEYHLNPETITILFVKTRALVDALKNWIEGNPKLSFLKPGILTGRGKTNQNTGMTLPAQKCILDAFKASGDHNILIATSVADEGIDIAQCNLVILYEYVGNVIKMIQTRGRGRARGSKCFLLTSNAGVIEKEQINMYKEKMMNDSILRLQTWDEAVFREKILHIQTHEKFIRDSQEKPKPVPDKENKKLLCRKCKALACYTADVRVIEECHYTVLGDAFKECFVSRPHPKPKQFSSFEKRAKIFCARQNCSHDWGIHVKYKTFEIPVIKIESFVVEDIATGVQTLYSKWKDFHFEKIPFDPAEMSK

The list shows a part of the results. Binding of human transcription factors and regulators to the viral nucleoprotein by AlphaScreen, crude cell-free proteins, amounts not normalised, one pass. Fold of the Venus control; higher = more signal. No active / inactive call. Single-pass screen; sequences are the whole Swiss-Prot entries looked up by name.

The target of the assay is nucleoprotein N of Crimean-Congo hemorrhagic fever virus. The assay can be described thus: AlphaScreen luminescence signal relative to Venus negative control (fold); higher = stronger binding to CCHFV N. The procedure: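 AlphaScreen binding of cell-free made, FLAG-GST-tagged human transcription factors and regulators (crude translation products) to biotinylated N protein; signal as fold of the FLAG-GST-Venus control. One pass.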
(Alpha assays give light when donor and acceptor beads are brought close together.)
The molecule B1 showed an AlphaScreen luminescence signal of 5.07.
Under B2 stands 2.84; under B3, 1.26; under B4, 2.42.
Under B5 stands 1.44.
The same measure for B6: 2.6.
As to B7, the AlphaScreen luminescence signal came to 12.7.
The same measure for B8: 6.56; for B9: 2.42.
